PubChem BioAssay AID1159614 (National Center for Advancing Translational Sciences (NCATS), 2016)
The campaign covered roughly 45,000 compounds. About 65 (0.1%) were called active. Calls follow the shape of the dose curve; as a rule, active = well fitted activation curve with a large enough effect; inconclusive = small, poorly fitted or top-dose-only effect; inactive = no such curve, though single readings can be large or run the other way. The list shows a part of the results.

target: Galactocerebrosidase (Homo sapiens) (UniProt P54803); experiment: A Novel Cell-Based Assay to Identify Small Molecules for B -Galactocerebrosidase; settings: 145M-Twi-hGALC-G270D cells (Twitcher mouse brain line with human GALC G270D), HMU-beta-Gal fluorescence, 48 h; series mostly up to 57.5 µM; activation: at the top concentration; also: 0% is about no effect; nearly all actives have a fitted effect of over 65% in size
Method in brief: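 Fluorogenic HMU-b-Gal hydrolysis (0.1 mM final, pH 5.2 citrate-phosphate with 1 mg/mL sodium taurocholate; carbonate stop buffer) measures mutant GALC activity after compound treatment of live 145M-Twi Twitcher brain cells stably carrying human GALC-G270D, with wild-type GALC line alongside; activation sought.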

UniProt P54803, sequence (P54803 whole entry, looked up): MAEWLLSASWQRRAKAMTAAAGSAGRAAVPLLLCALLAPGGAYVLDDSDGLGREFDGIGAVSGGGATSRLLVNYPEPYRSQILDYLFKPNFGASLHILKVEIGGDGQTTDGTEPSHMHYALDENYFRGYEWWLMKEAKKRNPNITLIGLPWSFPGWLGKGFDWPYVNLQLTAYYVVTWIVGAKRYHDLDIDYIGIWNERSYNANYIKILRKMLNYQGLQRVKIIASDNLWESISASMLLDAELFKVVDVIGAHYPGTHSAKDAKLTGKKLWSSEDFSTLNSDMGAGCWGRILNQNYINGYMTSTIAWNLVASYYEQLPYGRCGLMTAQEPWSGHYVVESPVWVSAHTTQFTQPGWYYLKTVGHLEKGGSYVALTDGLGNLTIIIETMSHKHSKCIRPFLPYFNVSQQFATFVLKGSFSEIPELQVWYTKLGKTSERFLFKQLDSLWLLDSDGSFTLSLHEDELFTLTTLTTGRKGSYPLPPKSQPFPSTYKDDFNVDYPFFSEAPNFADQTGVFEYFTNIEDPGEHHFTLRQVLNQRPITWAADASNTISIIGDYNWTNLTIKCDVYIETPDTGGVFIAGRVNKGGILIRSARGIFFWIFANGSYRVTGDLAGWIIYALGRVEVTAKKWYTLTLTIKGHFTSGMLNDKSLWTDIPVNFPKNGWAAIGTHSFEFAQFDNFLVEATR

activation, inactive:
COc1ccccc1OCc1nc2ccccc2n1Cc1ccccc1 24.3%
CCOc1ccccc1C1C(C(=O)Nc2ccccc2)=C(C)Nc2nc(-c3ccccc3)nn21 (configuration not stated) -5.47%
Cc1ccc(C)c(S(=O)(=O)c2nnn3c2nc(NC2CCCC2)c2sccc23)c1 -0.916%
COc1ccc(C)cc1NC(=O)c1nnn(CC(=O)Nc2c(C)cccc2C)c1N -6.01%
CCOc1c(CNCCSc2nnnn2C)cccc1OC -12.9%
COc1ccc(OC)c([C@@H]2Nc3ccc(C(=O)O)cc3[C@@H]3C=CC[C@@H]32)c1 -6.31%
Cc1cccc(C)c1NC(=O)C(=O)NCC(c1ccc2c(c1)OCO2)N1CCN(C)CC1 (configuration not stated) -12.6%
COc1ccc(CNC(=O)C(CC(C)C)NS(=O)(=O)c2ccc3c(c2)oc(=O)n3C)cc1 (configuration not stated) -3.47%
CCc1cccc(NC(=O)c2cc3c(=O)oc4ccc(C)cc4c3s2)c1 2.03%
CSc1nnc(NC(=O)c2cc(=O)c3cc(C)c(C)cc3o2)s1 10.1%
Cc1ccc(S(=O)(=O)c2cn(Cc3ccccc3)c3cc(N4CCCC4)c(F)cc3c2=O)c(C)c1 -5.82%
CC(=O)c1ccc(NC(=O)CCn2cccn2)cc1 -7.01%
Cc1ccc(Cn2c(=O)n(Cc3ccc(C(=O)NC4CCN(Cc5ccccc5)CC4)cc3)c(=O)c3ccccc32)cc1 -10.5%
CCc1cccc(NC(=O)C2CCCN2S(=O)(=O)c2ccc3nc(-c4ccccc4)[nH]c3c2)c1 (configuration not stated) -11.6%
O=c1c(-c2ccccc2)c1-c1ccccc1 -14.3%
CCc1ccc(NC(=O)Cn2c(=O)n(-c3cccc(OC)c3)c(=O)c3c(C)c(C(=O)N(C)C)sc32)cc1 -12.8%
CCCc1ccc(OCc2ccc(C(=O)Nc3ccccc3C(=O)OC)o2)cc1 -7.82%
CCc1ccc(CNC(=O)c2cccc(-n3c(C)nc4cccnc43)c2)cc1 -10.6%
Cc1ccc(-n2c(C)nc3c(cnn3-c3ccccc3)c2=O)cc1 -5.88%
Cc1ccc2oc(C(=O)N3CCC(c4nc5ccccc5s4)CC3)c(C)c2c1 -7.47%
O=C(c1ccc(Br)cc1)N(Cc1ccco1)c1ccccn1 -16.1%
CN1C(=O)Cc2cc(S(=O)(=O)NCc3ccccc3Cl)ccc21 -14.6%
COCCCNC(=O)CCCn1c(=O)c2ccccc2n(CC(=O)Nc2ccc(C)cc2Cl)c1=O -11.7%
Cn1c(=O)c2c(nc(N3CCOCC3)n2Cc2ccccc2Cl)n(C)c1=O -36.2%
CCOc1ccc(-c2c(C)nn3c(C)c(C(=O)NCCN(C)C)cnc23)cc1OCC -28.8%
CC(C)Cn1c(-c2ccccc2Cl)nc2ccccc21 -7%
O=C(NCCc1ccc(Cl)cc1)c1nnc(Cc2ccc(Cl)cc2Cl)o1 -10.5%
O=C(NCCc1ccc(Cl)cc1)c1ccc2nc(CCc3ccccc3)oc2c1 -16.5%
COc1cc(OC)cc(-c2nnc(SCC(=O)c3ccc([N+](=O)[O-])cc3)o2)c1 2.47%
Cc1nc(S(=O)(=O)N2CCN(c3cccc(Cl)c3)CC2)cn1C -6.59%
COc1ccc(N(CC(=O)NCCc2ccc(C)cc2)S(=O)(=O)c2c(C)nn(C)c2C)cc1 -5.09%
O=C(CSc1nncn2c1cc1occc12)Nc1ccc(F)c(Cl)c1 -10.9%
CC(C)Cn1c(CN2CCN(c3cccc(Cl)c3)CC2)nc2c1c(=O)[nH]c(=O)n2C 5.48%
COc1cc(Nc2nn(-c3ccc(OC(F)(F)F)cc3)nc2C(C)=O)cc(OC)c1 -13.8%
COc1cc(OC)cc(-n2c(=O)c3ccccc3n(Cc3ccccc3C#N)c2=O)c1 -11%
O=C(CCCn1c(=O)[nH]c2ccc(Br)cc2c1=O)N1CCN(c2cccc(Cl)c2)CC1 -30.5%
COC(=O)c1ccccc1NC(=O)Cn1nnc(-c2ccc(OC)cc2)n1 -11%
CCOC(=O)c1cc(-c2ccc(OC)cc2)n(CCC(=O)Nc2cccc(C)c2C)c1C -7.99%
CCCCc1nn2c(=O)cc(COC(=O)c3ccc4c(c3)OCO4)nc2s1 -13%
CCc1ccc(NC(=O)Cn2nc(C(F)(F)F)c3c2CCCC3)cc1 -9.67%
COc1cc(NC(=O)c2ccc(-c3nc(CSc4ccccc4)c(C)o3)cc2)cc(OC)c1 -12.7%
CC1=C(C(=O)Nc2ccccc2)C(C(C)C)n2nc(SCc3ccccc3C)nc2N1 (configuration not stated) -4.48%
CCOc1ccc(-c2cn3c(n2)sc2cc(C(=O)NCCCN4CCCCC4)ccc23)cc1 -11.6%
CCC(=O)Nc1cc(-c2cn3cccnc3n2)ccc1OC -0.688%
COc1ccc(NC(=O)c2cc(-c3ccc(F)cc3)no2)cc1OC -7.72%
Cc1c(Cl)cccc1NC(=O)Cn1c(=O)cc(C)c2c(C)nn(-c3cccc(F)c3)c21 -10.9%
O=C(OCC(O)CO)c1ccccc1Nc1ccnc2c(C(F)(F)F)cccc12 (configuration not stated) -12.7%
COc1ccccc1Cc1nc2ccccc2nc1SCC(=O)Nc1c(C)cccc1C -5.04%
O=C(Cn1ncn2cccc2c1=O)NCc1cccc(Br)c1 -3.36%
COc1ccc(N(CC(C)C)S(=O)(=O)c2nnc(NC(=O)c3ccco3)s2)cc1 -16.8%
CCn1c(C)c(C)c2cc(C(=O)N3CCN(c4ccccc4)CC3)ccc21 -4.31%
CCN(C(=O)CCS(=O)(=O)c1cc2c(cc1C)NC(=O)CO2)c1cccc(C)c1 -0.974%
CN(C)CCN(Cc1ccccc1)S(=O)(=O)c1csc(C(N)=O)c1 -11.7%
Cc1cc(NC(=O)c2ccco2)cc(-c2nc3ccccc3o2)c1O -17.5%
CCCNC(=O)Cn1nc(-c2ccc(C)cc2)c2cnc3ccc(CC)cc3c21 -3.83%
Cc1ccccc1C(=O)N(Cc1ccc(N(C)C)cc1)CC1CCCO1 (configuration not stated) 0.302%
Cc1ccc(N2CCN(C(=O)NCc3noc4ccc(C)cc34)CC2)c(C)c1 -17.7%
Cc1cccc(NC(=O)c2ccc(CNS(=O)(=O)c3ccc4c(c3)C(C)(C)C(=O)N4C)cc2)c1 5.09%
O=C(CCC1N=C2c3ccccc3N=C(SCC(=O)Nc3ccc(F)cc3)N2C1=O)NCc1cccs1 (configuration not stated) -15.6%
COC(=O)c1ccccc1NC(=O)C1CCCN(c2ncnc3onc(C)c23)C1 (configuration not stated) -6.87%
Cc1ccc(CNC(=O)c2sc3nc4n(c(=O)c3c2C)CCCCC4)cc1 -9.94%
CCOC(=O)c1noc2ncnc(NCc3ccccc3OC)c12 -8.62%
COc1ccccc1N=C1SC(C(=O)Nc2ccccc2OC)CC(=O)N1C (configuration not stated) -3%
COc1ccccc1NC(=O)CSC1=Nc2ccccc2C2=NC(CC(=O)NCc3ccc4c(c3)OCO4)C(=O)N12 (configuration not stated) 5.24%
O=C(NCCOCCn1c(=O)oc2ccccc21)Nc1cccc(Cl)c1 -15.6%
COc1cc(OC)c(N(C)C(=O)c2cc3c(=O)oc4ccccc4c3s2)cc1Cl 1.22%
O=c1c2ccccc2n2c(-c3ccccc3F)nnc2n1CCc1ccccc1 -32.6%
Cc1ccc(C(=O)N(c2ccc(C)cc2)S(=O)(=O)c2ccc(Cl)cc2)cc1 -15.6%
Cc1ccc(-n2nc(C(=O)N(C)Cc3ccccc3)c3c4ccccc4n(C)c3c2=O)cc1 9.06%
CC(C)c1ccc(NC(=O)c2ccc3c(O)c(S(=O)(=O)c4ccccc4)c(=O)[nH]c3c2)cc1 -14.7%
Cc1ccc(NC(=O)C(Cc2ccccc2)N2Cc3ccccc3C2=O)cc1Cl (configuration not stated) -18.1%
Cc1ccc(-n2c(=O)c3c(c4cc(C)ccc4n3C)n(Cc3ccc(F)cc3)c2=O)cc1 -4.12%
COc1ccc(C)cc1NC(=O)c1cc(S(=O)(=O)N2CCc3ccccc3C2)ccc1F -17.5%
CCCn1c(CCC(=O)Nc2ccc(C)c(Cl)c2)nc2cccnc21 -15.6%
Cc1oc(-c2ccc(C(=O)NCc3ccccc3Cl)cc2)nc1CN1CCc2ccccc21 -25%
CCCCNC(=O)CCn1c(=O)c2cccn2c2cccnc21 -4.34%
CCN(C(=O)c1c(C)oc2ncn(CC(C)C)c(=O)c12)c1cccc(Cl)c1 -2.08%
Cc1ccc(S(=O)(=O)C(CNC(=O)C(=O)NCCc2ccc(Cl)cc2)c2cccs2)cc1 (configuration not stated) -3.5%
O=C(CC1N=C2c3ccccc3N=C(SCc3cccc(Cl)c3)N2C1=O)NCCc1ccccc1 (configuration not stated) 1.02%
Cc1ccc(CCNC(=O)c2c[nH]c3ccc(S(=O)(=O)Nc4cccc(C(F)(F)F)c4)cc3c2=O)cc1 -13.5%
CCC1=C(c2ccc(C)cc2)S(=O)(=O)N=C1N1CCC(C(=O)NCCc2ccc(Cl)cc2)CC1 -15.7%
COc1ccc(CCNS(=O)(=O)c2cc(-c3onc(C)c3C)ccc2OC)cc1OC -7.86%
CCOc1ccc(CCNC(=O)c2ccc3c(c2)N(Cc2ccccc2F)C(=O)c2ccccc2S3=O)cc1OCC (configuration not stated) -11.4%
O=C(CCS(=O)(=O)c1cc2c3c(c1)CCN3C(=O)CC2)Nc1cccc(Br)c1 -15.6%
CCCS(=O)(=O)N1CC(=O)N(c2ccc(C)cc2C)C(C)(C(=O)NC2CCCCCC2)C1 (configuration not stated) 2.31%
O=C(Cn1c(=O)nc(-c2ccccc2)c2cc(Cl)ccc21)NCc1ccc(Cl)cc1 -5.23%
CCCCN(C)CCNC(=O)CN1C(=O)CSc2ccc(S(=O)(=O)N3CCCCC3)cc21 -9.94%
COc1ccccc1N1CCN(S(=O)(=O)CCNC(=O)Cc2ccc(Cl)cc2)CC1 -20.7%
O=c1c(S(=O)(=O)c2ccccc2)cn(Cc2cccc(F)c2)c2cc(N3CCCC3)c(F)cc12 -2.21%
Cc1ccc(C)c(Nc2nn3c(=O)c4cc5c(cc4nc3s2)OCO5)c1 -2.22%
CCc1ccc(NC(=O)CSc2nc(=O)n(Cc3ccncc3)c3c2CCC3)cc1 -10.8%
CCN1CCN(CCCNC(=O)Cn2c(-c3cccs3)cc3cc(F)ccc32)CC1 -9.39%
O=C(COCc1cc(-c2ccc3c(c2)OCO3)on1)Nc1cc(C(F)(F)F)ccc1Cl -17.7%
Cc1cc2c(cc1S(=O)(=O)CCC(=O)N1CCCCC1C)OCC(=O)N2 (configuration not stated) 0.879%
CCOc1ccc(CCNC(=O)CSc2nnnn2-c2ccc(C)cc2C)cc1OCC -19.7%
CCOc1ccc(NC(=O)N(C)CCc2c(C)nn(C)c2C)cc1 -6.41%
O=C(NCC(c1cccnc1)N1CCc2ccccc21)c1ccc(F)cc1 (configuration not stated) -14.1%
